Measured values reported in the supplement of paper PMC3334620.
The full ranking holds about 33,000 sequences; the median of “E-score (-0.5 to 0.5)” is about -0.036, and the highest 2% start at about 0.37. The list shows a part of the results.

target: T1, Yer064c (UniProt P40041); assay: PBM E-score (8-mer binding enrichment) (E-score (-0.5 to 0.5)); higher = stronger / more preferred TF binding; most listed sequences are background and not binding sites; conditions: protein concentration: 200 nM; construct: GST-full length
T1 sequence: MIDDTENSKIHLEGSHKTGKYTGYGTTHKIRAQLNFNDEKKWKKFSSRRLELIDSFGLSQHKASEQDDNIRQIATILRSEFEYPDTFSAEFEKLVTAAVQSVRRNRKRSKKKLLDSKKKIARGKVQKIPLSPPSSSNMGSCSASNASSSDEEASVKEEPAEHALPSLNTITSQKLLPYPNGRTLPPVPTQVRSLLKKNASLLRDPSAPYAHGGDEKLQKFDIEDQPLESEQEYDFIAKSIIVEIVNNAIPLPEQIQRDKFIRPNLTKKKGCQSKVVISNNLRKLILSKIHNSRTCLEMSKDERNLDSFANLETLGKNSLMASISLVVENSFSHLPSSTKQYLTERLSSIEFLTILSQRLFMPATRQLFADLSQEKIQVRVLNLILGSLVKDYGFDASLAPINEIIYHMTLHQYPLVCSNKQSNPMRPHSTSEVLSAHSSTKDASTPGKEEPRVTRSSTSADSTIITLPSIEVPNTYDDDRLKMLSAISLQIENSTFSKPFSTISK
How it was run: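 GST-tagged yeast TFs (full-length or DNA-binding domain) were made by PURExpress in vitro transcription/translation and applied at about 100-200 nM to universal all-10-mer Agilent arrays. The arrays were made double-stranded by primer extension, on fresh or once-stripped slides. Bound protein was detected with fluorescent anti-GST, and scans were normalised with masliner. Each ungapped eight-base word, pooled with its reverse complement, received an E-score (modified Wilcoxon-Mann-Whitney statistic) from the Universal PBM Analysis Suite.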

| Sequence | PBM E-score |
| --- | --- |
| GAATGCTA | -0.277 |
| GGTATAAA | -0.132 |
| CCTTCATC | -0.17 |
| CGGCAACC | -0.197 |
| AGGGAAAT | -0.0315 |
| CAGTCTAC | 0.0229 |
| ACTACTTC | 0.149 |
| TGCTCTAA | -0.0473 |
| GATATATA | 0.0368 |
| CGCTATGC | -0.24 |
| AGGCGCAG | -0.254 |
| ATGTTGCA | -0.0827 |
| AAAGGTCA | -0.00741 |
| GTGCCACA | -0.121 |
| AGCGACGA | 0.123 |
| TACCATAA | -0.112 |
| GGGACGAC | -0.02 |
| TACAATAA | 0.0752 |
| ATTGTCAC | -0.0262 |
| GCCCAATA | -0.302 |
| AGAGACCG | -0.32 |
| CCTAACCA | 0.0425 |
| TCACCAGA | -0.0218 |
| GGGTAGCA | -0.0568 |
| GGTCGTTA | 0.00527 |

| Sequence | PBM E-score |
| --- | --- |
| CCCCGCTA | -0.209 |
| CACTGCCC | -0.133 |
| AGGCGGCG | -0.194 |
| CATCCGAA | 0.123 |
| CGGCCGTC | -0.158 |
| AAAGCGGA | -0.211 |
| GCCGTATA | -0.214 |
| CATGGAGC | -0.0739 |
| CTTGGAGC | -0.0819 |
| GCACCTCC | -0.349 |
| CGTTAAAA | -0.172 |
| ACTATCCC | -0.0141 |
| CGGGTAAG | 0.0805 |
| GGAACACA | 0.0976 |
| ACCCCCGG | -0.29 |
| AAGAGCGC | 0.0664 |
| AGATGCGC | -0.344 |
| GATTGCAA | 0.204 |
| ACAGTAGC | 0.0569 |
| CTGAGAGC | -0.184 |
| AGAGGTCC | -0.279 |
| ACTATAAC | 0.0588 |
| CGAACTAC | 0.0577 |
| ACGTAGAC | -0.204 |
| GCCGACGA | 0.062 |

| Sequence | PBM E-score |
| --- | --- |
| CGATTCGC | 0.0811 |
| CCAAGAAG | -0.0914 |
| CCGCATAA | 0.0975 |
| CTTTCGTC | -0.0537 |
| AAATCTTA | 0.107 |
| CTGACATA | 0.0187 |
| ACTATTCG | 0.051 |
| CGGCACTA | -0.141 |
| ACCGAGCC | 0.0308 |
| TACTAGGA | 0.0896 |
| CCAATCGG | -0.107 |
| AGGACACT | -0.282 |
| GGCGCACA | -0.314 |
| GACGAGAA | 0.143 |
| AGAAAAGC | -0.216 |
| TAATATCA | 0.0745 |
| CGTAAAGC | -0.152 |
| CTCATCCA | 0.186 |
| TTGGGAAA | -0.0471 |
| ATCTTACA | 0.0469 |
| CCCGGTAG | -0.033 |
| CGGGTTAC | -0.224 |
| ACTTTGCT | -0.0619 |
| GCGGATTA | 0.0222 |
| TAAGGTAA | 0.0427 |

| Sequence | PBM E-score |
| --- | --- |
| GCTGCAGC | -0.329 |
| ATCATTCA | 0.268 |
| AACGGATC | -0.0289 |
| CGATTAGC | 0.0915 |
| CGCTAGAG | 0.0393 |
| CTTCAGGC | 0.0427 |
| CTACCGTC | -0.118 |
| CTAGAGAG | 0.127 |
| GGAACGAA | -0.138 |
| ACCCCTTA | -0.00226 |
| GTGTAAGA | 0.0664 |
| CAAGGGTG | 0.0913 |
| GAGGTGTA | -0.126 |
| GCTTCGAA | -0.0636 |
| AGACAACT | -0.0164 |
| CTGCGCGA | 0.0369 |
| ATATGTGG | -0.0412 |
| GCCTTTAA | -0.0411 |
| AATTCGGC | -0.19 |
| CGTCATAC | 0.192 |
| GAGAGAGA | -0.0218 |
| AACGGTAT | -0.138 |
| CGCACAGC | -0.212 |
| CGCGGATC | -0.134 |
| AATGGGTA | 0.222 |

| Sequence | PBM E-score |
| --- | --- |
| GCCCCTCC | -0.244 |
| AGGACTTA | 0.234 |
| CCCAGTAC | 0.062 |
| CCTGCATA | -0.199 |
| AAGTAAGG | -0.0564 |
| TACTCGAA | 0.0635 |
| AAAGCATC | -0.258 |
| AGTTCCCC | -0.184 |
| AATCGACC | -0.108 |
| ATGGGGAA | -0.146 |
| GTGATCAC | 0.227 |
| AGTGAAGC | -0.241 |
| AAGGGGGC | -0.308 |
| AAATCTGG | -0.0548 |
| AGCTGAAC | -0.0485 |
| GGTAAACA | 0.0828 |
| ACTGTGGG | -0.00819 |
| ATATAATG | 0.191 |
| CCGGGCAA | -0.127 |
| CGTAGATA | -0.103 |
| AGATTGCA | -0.052 |
| GCGACACA | 0.0967 |
| ATCGTAGG | -0.0464 |
| CACCAGTC | 0.169 |
| GCGTTACC | -0.22 |

| Sequence | PBM E-score |
| --- | --- |
| CCGCGAGC | -0.174 |
| GGGAGACA | 0.057 |
| AATGTGCC | -0.359 |
| GTGTCGCA | -0.0448 |
| TCCTTTAA | -0.0751 |
| GAGTAGCC | -0.0295 |
| CCCGCGTC | -0.199 |
| CGAGTGAC | 0.244 |
| CCCTGTCA | -0.213 |
| AATGCAAT | -0.0785 |
| CGAACCAG | 0.0948 |
| GGTTGTTA | -0.0739 |
| TCTACCAA | 0.0933 |
| AGGGCAGA | -0.149 |
| ACCCTGGA | -0.186 |
| ATCGAGCG | -0.123 |
| ACAGACCT | -0.0594 |
| GATCTACA | 0.0313 |
| CAAAGGTC | -0.0454 |
| AAAATTCA | 0.123 |
| ACGGTTGA | 0.128 |
| AGTACCCG | 0.117 |
| CCAGTCGA | 0.00412 |
| AATCGGAT | 0.107 |
| AGTCTTCG | 0.418 |

| Sequence | PBM E-score |
| --- | --- |
| GGGAACGA | -0.143 |
| CAGTGGGA | -0.0676 |
| CATCAAAC | -0.0879 |
| GGGTTGGA | -0.16 |
| CGGAGAAG | -0.184 |
| CTTACGGA | -0.00318 |
| CCCACAAA | 0.0845 |
| AAATAGTG | 0.062 |
| AACTCTCA | 0.0457 |
| CTCCTGGC | -0.123 |
| AGTAAGAT | 0.0659 |
| GACTGGAA | 0.139 |
| CGACAGTA | 0.0755 |
| AGGCGCCC | -0.281 |
| ATATTGCC | -0.157 |
| AACACACC | 0.0884 |
| AGTACATC | 0.0751 |
| ACAAAGTA | 0.0867 |
| ACGCCCAA | -0.206 |
| CGGCTGGA | -0.218 |
| AGTAATAC | 0.119 |
| GGCGCAAC | -0.304 |
